# Test results as given in PubChem BioAssay AID624171 (National Center for Advancing Translational Sciences (NCATS), 2012).
# Out of some 410,000 compounds screened, about 1,200 (0.29%) were called active. Inconclusive means that the source gave no clear call. Such entries were picked first, then a sample of the others. The call rests on the fitted dose curve; in most records, active means well fitted activation curve with a large enough effect; inconclusive means small, poorly fitted or top-dose-only effect; inactive means flat fitted curve, though single readings scatter. Where the call is inconclusive, the potency comes from a doubtful curve fit.
# Experiment: qHTS of Nrf2 Activators; further: nearly all actives have a fitted effect of over 65% in size; on activation: % of control where 0% means no effect
# Settings: AREc32 ARE-luciferase reporter (MCF7-derived line), luminescence, 24 h; activation: at 46.1 µM (top of the series)
# Procedure, shortened: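 Each well held 1000 AREc32 cells, which were incubated with compound for 24 hr at 37 deg C after overnight attachment, and ARE reporter activity was quantified by firefly luciferase luminescence.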
# Potency means the concentration at half of the fitted maximal effect; tags describe the fitted curve by direction and shape.
SMILES,Potency,activation
O=C(/C=C/c1ccco1)Nc1ccc(Cl)c(S(=O)(=O)N2CCOCC2)c1,"inconclusive: 3.98 µM [activator, partial curve, poor fit]",–
CCOC(=O)c1sc(NC(=O)c2ccccc2F)c(C(N)=O)c1C,"inconclusive: 3.16 µM [activator, full curve, poor fit]",–
COC(=O)CSc1nc(N)c(C#N)c(-c2ccco2)c1C#N,active: 14.1 µM,–
Cc1ccccc1NC(=O)CSC1=Nc2ccccc2C2=NC(CCC(=O)NCc3ccccc3)C(=O)N12 (centres undefined),–,inactive: -0.205%
COc1cc(NS(C)(=O)=O)ccc1Nc1c2ccccc2nc2ccccc12,"inconclusive: 31.6 µM [activator, single point]",–
COc1ccc(C(CC(=O)c2ccc(C)cc2)Sc2ccccc2N)cc1 (centres undefined),"inconclusive: 17.8 µM [activator, single point]",–
Brc1ccc2nc(-c3ccco3)c(CC3CCCCC3)n2c1,"inconclusive: 22.4 µM [activator, single point]",–
CCC(CC)C(=O)N(C)c1c(C)nc2c(OCc3cccc(OC)c3)cccn12,–,inactive: -0.377%
O=S(=O)(NCc1cccc(Br)c1)c1ccc(-c2cc(C(F)(F)F)on2)s1,–,inactive: 0.606%
COc1ccccc1-c1noc(-c2ccco2)n1,"inconclusive: 12.6 µM [activator, partial curve, poor fit]",–
N#C/C(=C\c1ccco1)C(=O)Nc1cccc2ncccc12,"inconclusive: 20 µM [activator, single point]",–
CCOc1ccc(Br)cc1C1=NN(C(C)=O)C(c2ccc([N+](=O)[O-])s2)O1 (centres undefined),"inconclusive: 17.8 µM [activator, single point]",–
C/C(=N\NC(=O)c1cccc(S(=O)(=O)Nc2cccc(Cl)c2)c1)c1cccs1,"inconclusive: 7.08 µM [activator, partial curve]",–
Oc1c(CN2CCOCC2)cc(CN2CCOCC2)c(O)c1O,–,inactive: -0.581%
O=C(c1ccc(F)cc1)n1c(=S)nc2ccccn21,active: 2.51 µM,–
Cc1ccc(O)c(-c2cc(-c3cccc(F)c3)n[nH]2)c1,"inconclusive: 3.16 µM [activator, partial curve, poor fit]",–
Cc1cccc(N=Nc2ccc(O)c3ncccc23)c1,"inconclusive: 11.2 µM [activator, partial curve, poor fit]",–
CCCn1nnc(NC(=O)/C=C/c2ccco2)n1,"inconclusive: 10 µM [activator, partial curve]",–
O=C(CCl)N(c1ccccc1)c1c[nH]c2ccccc12,"inconclusive: 5.62 µM [activator, single point]",–
COc1ccccc1/C=C/c1nc(C#N)c(N(C)C)o1,"inconclusive: 7.94 µM [activator, partial curve]",–
Cc1cc(=O)n2nc(-c3ccccc3)sc2c1C#N,active: 2.24 µM,–
CC1Cc2ccccc2N1C(=O)Cn1nnc(-c2ccccc2NC(=O)C2CCC2)n1 (centres undefined),–,inactive: 0.183%
CC(=O)N(C)/C=C1\Sc2ccccc2C1=O,"inconclusive: 22.4 µM [activator, single point]",–

SMILES,Potency,activation
O=C(Nc1cccn2ncnc12)c1cccc(C(F)(F)F)c1,"inconclusive: 3.16 µM [activator, partial curve, poor fit]",–
O=C(CC(SCc1ccco1)c1ccc(O)cc1)c1cccs1 (centres undefined),"inconclusive: 20 µM [activator, single point]",–
O=C(OCc1ccccc1)c1ccc(NCc2cc(O)ccc2O)cc1,"inconclusive: 3.16 µM [activator, partial curve, poor fit]",–
O=[N+]([O-])c1cc(Cl)ccc1-c1nc(-c2ccccc2)no1,"inconclusive: 15.8 µM [activator, partial curve, poor fit]",–
O=C(CN1C(=O)COc2ccccc21)Nc1ccc(F)cc1,active: 12.6 µM,–
COc1ccc(Cn2c(-c3ccc(Cl)cc3)c[n+]3ccccc23)cc1,"inconclusive: 17.8 µM [activator, single point]",–
COc1cccc(/C=C2\SC(N3CCCC(C)C3)=NC2=O)c1OC (centres undefined),"inconclusive: 20 µM [activator, single point]",–
CC(CN(C)Cc1ccccc1)OC(=O)C1COc2ccccc2O1 (centres undefined),"inconclusive: 31.6 µM [activator, partial curve, poor fit]",–
O=C(c1ccc(Cl)nc1)c1cccs1,"inconclusive: 14.1 µM [activator, partial curve, poor fit]",–
CCc1nnc(SC(CC)C(=O)Nc2cccc(OC)c2)c2cc3oc(C)cc3n12 (centres undefined),"inconclusive: 25.1 µM [activator, single point]",–
CC(C(=O)NC1C=CS(=O)(=O)C1)N1C(=O)/C(=C/c2cccc(Cl)c2)SC1=S (centres undefined),"inconclusive: 25.1 µM [activator, single point]",–
CCc1ccc(NC(=O)CCn2nc(-c3ccccc3OC)c3c(C)cc(C)nc32)cc1,–,inactive: -1.06%
NNC(=O)C(=O)/C=C1\NC2(CCCC2)Cc2ccccc21,–,inactive: -0.614%
O=C(Nc1cc(Cl)ccc1-n1cncn1)c1ccco1,active: 10 µM,–
COc1ccc(NC(=O)C2=C(C)Nc3nc(SCc4ccccc4C)nn3C2c2cc(OC)c(O)c(OC)c2)cc1 (centres undefined),–,inactive: 0.695%
Brc1ccccc1-c1nnc(COc2cccc3cccnc23)o1,"inconclusive: 14.1 µM [activator, single point]",–
Cc1c(NC(=O)Nc2cccs2)cccc1[N+](=O)[O-],"inconclusive: 3.55 µM [activator, full curve]",–
CSc1nc2ccc(NC(=O)c3ccc(=O)n(C)n3)cc2s1,"inconclusive: 12.6 µM [activator, partial curve, poor fit]",–
COc1ccc(CCNc2nc(-c3sc(C)nc3C)cs2)cc1OC,–,inactive: -0.0852%
Cc1ccccc1-c1noc(-c2ccc(O)cc2)n1,"inconclusive: 3.16 µM [activator, partial curve, poor fit]",–
CCOC(=O)c1c(C)[nH]c(CCC(=O)Nc2ccc(C)c(F)c2)c1C,–,inactive: 4.96%
O=c1c2ccccc2oc2c1ccc1ccccc12,"inconclusive: 1.78 µM [activator, partial curve, poor fit]",–
COc1cc(CCN2C(=O)c3cccc4cccc(c34)C2=O)c(S(=O)(=O)N2CCCCCC2)cc1OC,"inconclusive: 4.47 µM [activator, partial curve]",–

SMILES,Potency,activation
c1ccc(Nc2c(-c3c[nH]c4ccccc34)nc3ccccn23)cc1,"inconclusive: 15.8 µM [activator, single point]",–
OC[C@H]1O[C@@H](n2cnc3c(NCc4ccco4)ncnc32)[C@H](O)[C@@H]1O,"inconclusive: 15.8 µM [activator, single point]",–
CC(C)Nc1ccc(-c2nc(-c3ccco3)no2)cc1[N+](=O)[O-],"inconclusive: 8.91 µM [activator, partial curve]",–
Cc1ccc(/C=N/n2c(-c3ccc(Cl)cc3)n[nH]c2=S)o1,"inconclusive: 14.1 µM [activator, single point]",–
CC(C)(C)c1ccc(-c2conc2N)cc1,"inconclusive: 15.8 µM [activator, single point]",–
S=C(NNc1ccc2ccccc2c1)NC1CCCCC1,"inconclusive: 2.82 µM [activator, full curve, poor fit]",–
CC(/C=N/NC(=O)Cc1cccn1C)=C\c1ccco1,"inconclusive: 10 µM [activator, partial curve]",–
Oc1ccc2ccccc2c1-c1sc(Nc2ccccc2)n[n+]1-c1ccc(F)cc1,–,inactive: 0.0996%
CC(=NNC(=S)N1CCCCCC1)c1ccccn1,"inconclusive: 35.5 µM [activator, single point]",–
CCOC(=O)c1c(C)[nH]c(CCC(=O)NCc2ccc(CC)cc2)c1C,–,inactive: 4.06%
N#CCc1cnc2ccccc2n1,"inconclusive: 11.2 µM [activator, partial curve]",–
COc1ccc(Cc2c(-c3cccc(Br)c3)nc3ccc(Br)cn23)c(C)c1,"inconclusive: 12.6 µM [activator, partial curve]",–
Cc1ccc(S(=O)(=O)Nc2cc3c(cc2NCc2ccccc2)n(C)c(=O)n3C)c(C)c1,"inconclusive: 20 µM [activator, partial curve, poor fit]",–
Cn1c(=O)c2c(nc(SCC(=O)N3c4ccccc4CCc4ccccc43)n2C)n(C)c1=O,–,inactive: -0.704%
O=C(/C=C/c1cccc(O)c1)c1ccc(N2CCOCC2)cc1,active: 14.1 µM,–
CCOc1ccc(C(=O)CCN2CCCCCC2)cc1,"inconclusive: 17.8 µM [activator, single point]",–
O=C(CSc1c2c(nc3ccc(Cl)cc13)CCCC2)NCCCN1CCOCC1,"inconclusive: 17.8 µM [activator, single point]",–
O=c1[nH][nH]c(-c2ccccc2O)c1C(C[N+](=O)[O-])c1ccccc1 (centres undefined),"inconclusive: 22.4 µM [activator, single point]",–
Brc1ccc(-c2cnc(-c3cccs3)o2)cc1,"inconclusive: 11.2 µM [activator, partial curve, poor fit]",–
O=C(Nc1nnc(SCc2cc(=O)n3cc(Cl)ccc3n2)s1)c1cccc(F)c1,–,inactive: 5.9%
CCCC(=O)Nc1ccc(C(=O)/C=C/c2ccc(SC)cc2)cc1,"inconclusive: 35.5 µM [activator, single point]",–
N#Cc1ccsc1NC(=O)CCS(=O)(=O)c1ccccc1,active: 14.1 µM,–
COc1ccc(/C=C2/CCc3ccccc3C2=O)cc1OC,"inconclusive: 22.4 µM [activator, single point]",–
